Among the data in patent US20240254117A1, “PYRIMIDO-HETEROCYCLIC COMPOUNDS, AND PREPARATION METHOD THEREFOR AND USE THEREOF” (SHANGHAI RINGENE BIOPHARMA CO., LTD., priority 2020, published 2024) are IC50 values, retold here.

Bounds are passed on as bounds.

Usually IC50 stands for the concentration that inhibits the measured activity by half. High values mean weaker potency in that assay, low ones greater potency in that assay.

In this test the target is T1, KRAS^G12C/SOS1 (Homo sapiens, UniProt Q07889).
T1 sequence (Q07889 1-1333): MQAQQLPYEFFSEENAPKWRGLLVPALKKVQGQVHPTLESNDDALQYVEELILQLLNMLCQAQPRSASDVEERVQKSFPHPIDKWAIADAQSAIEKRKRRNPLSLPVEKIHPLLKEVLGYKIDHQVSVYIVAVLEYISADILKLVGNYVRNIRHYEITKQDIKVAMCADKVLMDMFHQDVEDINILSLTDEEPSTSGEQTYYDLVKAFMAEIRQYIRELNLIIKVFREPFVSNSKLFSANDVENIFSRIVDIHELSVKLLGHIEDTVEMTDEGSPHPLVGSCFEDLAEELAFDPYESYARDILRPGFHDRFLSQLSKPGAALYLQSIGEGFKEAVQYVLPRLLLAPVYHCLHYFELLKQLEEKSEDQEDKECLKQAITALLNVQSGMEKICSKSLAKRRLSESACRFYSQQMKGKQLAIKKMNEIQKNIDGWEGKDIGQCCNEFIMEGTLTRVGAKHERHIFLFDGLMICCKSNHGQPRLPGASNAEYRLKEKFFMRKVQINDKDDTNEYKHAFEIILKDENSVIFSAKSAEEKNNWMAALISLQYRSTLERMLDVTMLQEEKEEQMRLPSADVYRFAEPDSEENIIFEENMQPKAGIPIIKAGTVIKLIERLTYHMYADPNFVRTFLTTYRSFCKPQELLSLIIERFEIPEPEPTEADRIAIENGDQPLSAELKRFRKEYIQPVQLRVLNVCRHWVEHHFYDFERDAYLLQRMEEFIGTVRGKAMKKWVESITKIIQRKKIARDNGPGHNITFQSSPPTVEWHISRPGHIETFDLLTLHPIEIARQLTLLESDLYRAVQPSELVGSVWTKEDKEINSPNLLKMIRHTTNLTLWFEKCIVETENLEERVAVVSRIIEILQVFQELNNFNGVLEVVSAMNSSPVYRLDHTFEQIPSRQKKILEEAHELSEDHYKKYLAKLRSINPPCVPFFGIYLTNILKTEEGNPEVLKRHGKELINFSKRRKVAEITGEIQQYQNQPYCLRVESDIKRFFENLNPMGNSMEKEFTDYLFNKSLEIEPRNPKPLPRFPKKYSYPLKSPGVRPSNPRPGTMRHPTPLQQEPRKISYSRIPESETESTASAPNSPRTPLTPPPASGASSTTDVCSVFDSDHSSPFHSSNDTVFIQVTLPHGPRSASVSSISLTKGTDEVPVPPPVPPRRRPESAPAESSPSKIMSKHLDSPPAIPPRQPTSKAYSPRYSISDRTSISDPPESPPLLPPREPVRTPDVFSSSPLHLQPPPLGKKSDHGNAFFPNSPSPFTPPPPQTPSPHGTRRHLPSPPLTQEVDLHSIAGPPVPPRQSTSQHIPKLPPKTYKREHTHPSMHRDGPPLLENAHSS
In words: biochemical.
`Cc1nc(N[C@H](C)c2cc(N)cc(C(F)(F)F)c2)c2cc(C3(C#N)CCN(C(=O)C(C)C)CC3)c3nccn3c2n1` [Example 90] gave an IC50 of less than 50 nM.

As to `COC1(c2cc3c(N[C@H](C)c4cc(N)cc(C(F)(F)F)c4)nc(C)nc3n3ccnc23)CC2CCC(C1)N2C(=O)C(C)C` (stereo partly shown) [Example 91], the IC50 was less than 50 nM.

The compound `COC1(c2cc3c(N[C@H](C)c4cc(N)cc(C(F)(F)F)c4)nc(C)nc3n3ccnc23)CC2CCC(C1)N2C` (stereo partly shown) [Example 92] returned an IC50 of less than 50 nM.

`COC1(c2cc3c(N[C@H](C)c4cc(N)cc(C(F)(F)F)c4)nc(C)nc3n3ccnc23)CC2CCC(C1)N2C(C)C` (stereo partly shown) [Example 93]: the IC50 is less than 50 nM.

Regarding `Cc1cn2c(n1)c(-c1ccc(=O)n(C)c1)cc1c(N[C@H](C)c3cc(N)cc(C(F)(F)F)c3)nc(C)nc12` [Example 94, (R)-5-(4-((1-(3-amino-5-(trifluoromethyl)phenyl)ethyl)amino)-2,8-dimethylimidazole [1′,2′:1,6]pyrido [2,3-d]pyrimidin-6-yl)-1-methylpyridin-2 (1H)-one], the IC50 was more than 100 nM.

Turning to `Cc1cn2c(n1)c(N1CCOCC1)cc1c(N[C@H](C)c3cc(N)cc(C(F)(F)F)c3)nc(C)nc12` [Example 95, (R)-N-(1-(3-Amino-5-(trifluoromethyl)phenyl)ethyl)-2,8-dimethyl-6-morpholinimidazole [1′,2′:1,6] pyrido [2,3-d] pyrimidin-4-amine], the IC50 was in the range of 50 to 100 nM.

`COC1(c2cc3c(N[C@H](C)c4cc(N)cc(C(F)(F)F)c4)nc(C)nc3n3cc(C)nc23)CCN(C(C)=O)CC1` [Example 96, (R)-1-(4-(4-((1-(3-amino-5-(trifluoromethyl)phenyl)ethyl)amino)-2,8-dimethylimidazole [1′,2′:1,6]pyrido [2,3-d]pyrimidin-6-yl)-4-methoxypiperidin-1-yl) ethyl-1-one] had an IC50 of less than 50 nM.
